# Assay results reported in article PMC4336329 (PLoS ONE, 2015).
# In all, about 310,000 compounds went through this assay and about 2,200 (0.71%) showed an effect of 50% or more. The effect is printed as a negative number. This is one part of the list.
# Biological target: human ether-à-go-go-related gene (hERG) potassium channel (human, UniProt Q12809)
# Assay: primary screen, population patch clamp on CHO cells stably expressing hERG
# Chain of human ether-à-go-go-related gene (hERG) potassium channel (Q12809 whole entry, looked up): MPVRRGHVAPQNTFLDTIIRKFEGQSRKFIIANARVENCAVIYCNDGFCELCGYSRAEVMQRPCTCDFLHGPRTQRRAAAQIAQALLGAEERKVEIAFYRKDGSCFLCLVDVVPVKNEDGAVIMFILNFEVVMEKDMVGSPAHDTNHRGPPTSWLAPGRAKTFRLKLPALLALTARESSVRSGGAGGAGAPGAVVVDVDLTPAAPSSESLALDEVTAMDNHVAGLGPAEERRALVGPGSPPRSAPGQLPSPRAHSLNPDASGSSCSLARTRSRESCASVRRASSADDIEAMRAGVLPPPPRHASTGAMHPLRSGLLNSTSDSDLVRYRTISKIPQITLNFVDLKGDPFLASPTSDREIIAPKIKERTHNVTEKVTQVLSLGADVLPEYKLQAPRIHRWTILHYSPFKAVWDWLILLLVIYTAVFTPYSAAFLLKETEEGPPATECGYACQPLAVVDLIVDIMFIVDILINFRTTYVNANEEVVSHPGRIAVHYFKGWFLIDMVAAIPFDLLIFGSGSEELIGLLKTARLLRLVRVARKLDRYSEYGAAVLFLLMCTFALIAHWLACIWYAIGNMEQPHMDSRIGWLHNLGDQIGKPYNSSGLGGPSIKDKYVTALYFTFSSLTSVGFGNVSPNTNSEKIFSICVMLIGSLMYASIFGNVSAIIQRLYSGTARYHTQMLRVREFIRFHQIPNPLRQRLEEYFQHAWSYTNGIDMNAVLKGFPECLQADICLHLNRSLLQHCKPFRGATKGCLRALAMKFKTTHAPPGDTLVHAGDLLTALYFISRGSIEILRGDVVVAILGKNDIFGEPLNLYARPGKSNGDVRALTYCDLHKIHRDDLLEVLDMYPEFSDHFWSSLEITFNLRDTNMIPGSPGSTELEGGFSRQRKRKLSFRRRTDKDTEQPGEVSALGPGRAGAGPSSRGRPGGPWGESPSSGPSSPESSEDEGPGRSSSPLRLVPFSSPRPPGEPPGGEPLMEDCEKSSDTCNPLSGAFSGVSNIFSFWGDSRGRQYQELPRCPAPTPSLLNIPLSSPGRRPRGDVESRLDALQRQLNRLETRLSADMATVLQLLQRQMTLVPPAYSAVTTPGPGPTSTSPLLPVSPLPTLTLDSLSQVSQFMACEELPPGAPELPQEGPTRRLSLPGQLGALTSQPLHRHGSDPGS
row,SMILES,"hERG current change (%, negative = inhibition) at 1uM [%]"
1,CCC1(c2ccccc2)NC(=O)N(CC(=O)Nc2ccc(S(=O)(=O)Nc3ncccn3)cc2)C1=O (stereo not shown),4.41
2,CCn1cnc2c1c(=O)n(CC(=O)NN)c(=O)n2Cc1ccccc1,15.9
3,CN(C)CCNC(=O)c1sc2nc(-c3ccccc3)cc(C(F)(F)F)c2c1N,-2.34
4,CC(=O)Nc1ccc(NC(=O)C/C(C)=N/NC(=O)C(=O)Nc2ccc(C)c(Cl)c2)cc1,10.8
5,CCC(=O)Nc1ccc(C(=O)Nc2ccc3c(c2)C(=O)N(CC2CCCO2)C3=O)cc1 (stereo not shown),16.2
6,O=C(c1ccco1)N1CCC(n2nnc3ccccc32)CC1,-0.447
7,Fc1ccc(C(Nc2ccccn2)c2c[nH]c3ccccc23)cc1 (stereo not shown),4.2
8,Cn1c(Cl)c(/C=N/OC(=O)c2cccc(Cl)c2)c2ccccc21,5.17
9,CCOc1ccc(N=C2C(=O)N(CN3CCOCC3)c3ccccc32)cc1,-1.4
10,Cc1ccc(NC(=S)Nc2ccc(OC(F)F)c(Cl)c2)cc1F,2.35
11,Cc1ccccc1CSCC(=O)Nc1ccccc1-c1ccccc1,10.2
12,Cc1cccc(NC(=O)CC2Nc3cccc4cccc(c34)NC2=O)c1 (stereo not shown),-1.11
13,CC(=O)/C=C(\C)NCCNc1c(F)c(F)c(CO)c(F)c1F,6.94
14,COc1ccc(CCN=CC2=C(O)CCCC2=O)cc1OC,8.07
15,CN(CCCNC(=O)Cn1cccc1C(=O)c1ccccc1)C1CCCCC1,-7.02
16,Cl.c1ccc(OCC2CCNCC2)nc1,11.4
17,Cc1nc2ccccc2c(=O)n1NC(=O)c1c(O)c2c(n(CC(C)C)c1=O)CCCC2,-0.429
18,CCOC(=O)C1(Cc2ccccc2C)CCCN(C(=O)COC)C1 (stereo not shown),14.8
19,O=C(CNc1ccccc1)N/N=C/c1ccc([N+](=O)[O-])cc1,13.7
20,COc1ccc(CNc2oc(-c3cccc4ccccc34)nc2P(=O)(OC)OC)cc1,12
21,CC(=O)c1cccc(Nc2c3c(nc4ccccc24)CCC3)c1.Cl,-13.7
22,Cn1c(=O)c2c(nc(SCCN3CCOCC3)n2C)n(C)c1=O,20.1
23,Cc1ccc(C(C)C)c(OCC(=O)Nc2ccc3c(c2)nc(CN2CCCC2)n3C)c1,-16.8

row,SMILES,"hERG current change (%, negative = inhibition) at 1uM [%]"
1,Cc1c(NC(=O)C2CC=CCC2C(=O)O)c(=O)n(-c2ccccc2)n1C (stereo not shown),-5.81
2,O=C(Nc1nc2ccc(F)cc2s1)C1CCN(S(=O)(=O)c2cc([N+](=O)[O-])ccc2Cl)CC1,13.7
3,CCC1CCCCN1c1cc(C)nc2cc(-c3cccc(C)c3)nn12 (stereo not shown),2.95
4,Cc1c(C(=O)Nc2ccncc2)sc2nc(-c3ccccc3)cn12,-0.0661
5,CCCCCn1c(SCC(=O)OC)nc2c1c(=O)[nH]c(=O)n2C,-35.3
6,Cc1ccc(COCCN2CCN(S(=O)(=O)c3ccc(C)cc3)CCC2=O)cc1,9.86
7,O=C(CNC(=O)c1ccccc1F)OCc1nc2ccccc2s1,10.9
8,Cc1onc(-c2c(Cl)cccc2Cl)c1C(=O)Nn1cnnc1,13.1
9,COc1ccccc1Cc1noc(COc2cccc(C)c2C)n1,8.14
10,Cc1nnsc1NC(=O)OCCCl,2.59
11,CN(Cc1nc2c(s1)CCCC2)C(=O)CCc1nnc(-c2ccccc2)o1,3.84
12,CCOc1ccccc1NC(=O)CN1C(=O)C(C)SC(C)C1=O (stereo not shown),10.7
13,C=CCC1NS(=O)(=O)OC2CCCC12 (stereo not shown),11.2
14,Cc1cc(/C=C2\SC(=S)N(C)C2=O)c(C)n1-c1ccccc1O,8.22
15,CCCCCCCC(=O)Oc1ccc(C(=O)Nc2cc(C)on2)cc1,14.4
16,CC1CC(=O)c2cnc(N)nc2C1 (stereo not shown),-5.65
17,CC(C)Nc1cc(N2CCCC2)ccc1[N+](=O)[O-],5.36
18,CC(=O)N1CCCc2cc(S(=O)(=O)N3CCN(c4ccccn4)CC3)ccc21,3.81
19,O=C(NCc1ccc2c(c1)OCO2)C1CCCN(S(=O)(=O)c2cccnc2)C1 (stereo not shown),16.5
20,N#CCC(=O)NNC(=S)NC(=O)C(c1ccccc1)c1ccccc1,7.95
21,CN(C)/N=C/c1ccc(/C=N/NC(N)=S)o1,13.2
22,CCOc1ccc(N(CC(=O)NCC2CCCO2)S(=O)(=O)c2ccc(C)cc2)cc1 (stereo not shown),6.46
23,CCN1CCN(Cc2ccccc2C)CC1,10.5

row,SMILES,"hERG current change (%, negative = inhibition) at 1uM [%]"
1,Cc1cccc(C(=O)OCC(=O)NC(C)CCc2ccccc2)c1 (stereo not shown),9.19
2,CC(/C=N/NC(=O)c1cccnc1)=C\c1ccco1,15.7
3,CC(C)N1C(=O)C2ON(c3ccccc3)C(c3cccs3)C2C1=O (stereo not shown),8.77
4,CC(C)C(=O)NC(c1ccc(N(C)C)cc1)c1c(O)ccc2ccccc12 (stereo not shown),9.96
5,COc1ccccc1/C(O)=C(\C#N)c1nc2ccccc2[nH]1,12.5
6,O=C(NC1=NCCS1)c1ccc2c(c1)C(=O)N(Cc1ccco1)C2=O,-7.22
7,Br.CC(C)Cc1ccc(C2=CSC3=NCCN23)cc1,-60.9
8,O=C(CN1C(=O)c2ccccc2S1(=O)=O)NCCC1=CCCCC1,7.27
9,Cc1ccc(S(=O)(=O)N(C)c2cc(S(=O)(=O)N3CCOCC3)c(C)cc2C)cc1,6.94
10,Cc1nonc1CN(C)C(=O)c1cc(COc2ccc(F)cc2Cl)on1,15.6
11,O=C(Cc1ccccc1F)N1CCN(S(=O)(=O)c2ccc(Cl)cc2)CC1,20.7
12,O=C(C1CCN(C2CCN(Cc3ccsc3)CC2)CC1)N1CCOCC1,12.6
13,COc1ccc(S(=O)(=O)Nc2noc3ccccc23)cc1OC,14.5
14,COc1cc(C)c(C(C)C)cc1S(=O)(=O)N1CCOCC1,-1.94
15,C=CCNC(=O)c1ccc2c(c1)S(=O)(=O)c1ccccc1C2=O,-9.65
16,O=C(CSc1nnc(-c2cccnc2)n1Cc1ccco1)c1ccccc1,-0.151
17,Cc1ccc2c(c1)C(c1ccccc1)N(C(=O)c1ccc(F)cc1)CC(=O)N2 (stereo not shown),13.6
18,COc1ccc(C(=O)C(OC(=O)CNC(=O)c2ccco2)c2ccccc2)cc1 (stereo not shown),6.88
19,CCCN(CCC)C(=O)Cn1c(=O)c2ccccc2n2c(=S)sc(-c3ccccc3C)c12,11.6
20,CC(=O)c1ccn(S(=O)(=O)c2ccccc2)c1,4.95
21,COc1ccc(NC(=O)C/C(C)=N/NC(=O)C(=O)NC(C)C)c(OC)c1,5.74
22,Cc1cc2oc(=O)c(CC(=O)NCCCO)c(C)c2c2occ(C(C)(C)C)c12,12.2
23,CCOC(=O)c1c(NC(=O)COC(=O)c2nc(Cl)ccc2Cl)sc2c1CCC2,8.79

row,SMILES,"hERG current change (%, negative = inhibition) at 1uM [%]"
1,CN(C(=O)CCNC(=O)Cn1cnc2ccccc2c1=O)c1ccc(F)cc1,12.8
2,Cc1nc(N2CCN(c3ccccn3)CC2)c2c(C)c(C(=O)Nc3ccc(F)c(Cl)c3)sc2n1,19
3,CC(C)c1ccc(NC(=O)C2CCN(c3ncnc4c3nc3n4CCCCC3)CC2)cc1,19
4,O=[N+]([O-])c1cc(Br)c(O)c(/C=N/Nc2nnnn2-c2cccc3ccccc23)c1,-4.85
5,COc1ccc(Nc2ncnc3sccc23)cc1OC,5.92
6,Cc1ccc(N2CC(C(=O)Nc3nnc(C)s3)CC2=O)cc1 (stereo not shown),7.69
7,CN1C(=O)c2cccc(N(C)C)c2C1=O,8.8
8,N#CC1(Nc2cccc(Br)c2)C(=O)Nc2ccccc21 (stereo not shown),12.2
9,COc1c(Cl)cnn(-c2ccccc2)c1=O,5.7
10,CCOc1cc(S(=O)(=O)n2ccc(C)n2)ccc1Br,11.7
11,Cc1cscn1,4.07
12,CCOC(=O)C1CCN(C(=O)C2CCCN2S(=O)(=O)c2ccc(Cl)cc2)CC1 (stereo not shown),9.14
13,CCOc1ccc(CCNC(=O)c2nnn(CC(=O)Nc3ccc(OC)cc3)c2N)cc1OCC,24.6
14,COc1ccc(C(C(=O)NCCC(C)C)N(CCO)C(=O)c2snc(C(N)=O)c2N)cc1 (stereo not shown),13.8
15,COCc1ccc(C(=O)NC2CCSc3ccccc32)cc1 (stereo not shown),2.7
16,O=C1C=C(N2CCCCCC2)C(=O)N1c1ccc(Cl)cc1,10.4
17,Cc1nc2ccccc2c(=O)n1CCN1CCOCC1,11.5
18,CCOc1ccc(OCCC(=O)N(CCC(C)C)c2c(N)n(Cc3ccccc3)c(=O)[nH]c2=O)cc1,13.9
19,Cc1nc2ccccn2c1C(=O)N/N=C/c1ccccc1Cl,6.06
20,CN(C)c1ccc(Nc2nc(-c3cccnc3)cs2)cc1,11.8
21,O=C1c2cccc3c([N+](=O)[O-])ccc(c23)C(=O)N1c1ccc(Cl)cn1,9.32
22,C/C(=N\Nc1cc(N2CCOCC2)nc(C)n1)c1cccc([N+](=O)[O-])c1,-12.6
